Data from paper PMC5892938.
The other results are listed elsewhere or left out. At the low end of the ranking the order means little.

Biological target: GST-SBP-SLBP (stem-loop binding protein) (UniProt Q14493)
Experiment: targeted RNA Bind-n-Seq;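 further: DESeq read counts versus GST-SBP nonspecific binding control pulldown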
Details: RBNS binding buffer: 25 mM Tris pH 7.5, 150 mM KCl, 3 mM MgCl2, 0.1% Tween, 0.5 mg/mL BSA, 1 mM DTT; 27 nM protein, 750 pM RNA pool; temperature not stated; high values mean tight binding

| Sequence | binding signal (log2 fold change) |
| --- | --- |
| GGUCACGUCUCAAUCAACUCUACUCCAGGAGUUUUCUCCUGCAAUCUCAACAGCUCGCAGUCAAG | -0.0977 |
| GGUCACGUCUCAAUCAACUCUACUUCAGGAGUUUUCUCCUGCUUUUUCAACAGCUCGCAGUCAAG | 0.12 |
| GGUCACGUCUCAAUCAACUCUUUUCCCAGGGAAACCCCUGGUUAUUUCAACAGCUCGCAGUCAAG | 0.221 |
| GGUCACGUCUCAAUCAACUCUUUUUCCAGGGAAAUCCCUGGCAAUCUCAACAGCUCGCAGUCAAG | 0.038 |
| GGUCACGUCUCAAUCAACUCACACGAGGGGGGGAAAACCCCUUUACCCUCCAUUUCAACAGCUCGCAGUCAAG | -0.0603 |
| GGUCACGUCUCAAUCAACUCAUUCCCAGGAGUUUUCUCCUGUUAAGUCAACAGCUCGCAGUCAAG | 0.0645 |
| GGUCACGUCUCAAUCAACUCAAUCUCAGGAGUUUCCUCCUGCAAUGUCAACAGCUCGCAGUCAAG | 0.194 |
| GGUCACGUCUCAAUCAACUCAAUUUCCAGGGAAACCCCUGGCAUAGUCAACAGCUCGCAGUCAAG | 0.157 |
| GGUCACGUCUCAAUCAACUCACAGGAGGGGGGGAAAACCCCUUUACCCUCAAUCUCAACAGCUCGCAGUCAAG | 0.014 |
| GGUCACGUCUCAAUCAACUCUUCCCCAGGAGUUUUCUCCUGUUAAUUCAACAGCUCGCAGUCAAG | -0.176 |
| GGUCACGUCUCAAUCAACUCACACGAGGGGGGGAAAACCCCUUUGCCCUCAAUCUCAACAGCUCGCAGUCAAG | -0.119 |
| GGUCACGUCUCAAUCAACUCUCUAGAGGGGGGGAAAACCCCUUUGCCCUCAAAAUCAACAGCUCGCAGUCAAG | -0.289 |
| GGUCACGUCUCAAUCAACUCAACUUCAGGAGUUUUCUCCUGCUAUUUCAACAGCUCGCAGUCAAG | 0.167 |
| GGUCACGUCUCAAUCAACUCCAUAGAGGGGGGGAAAACCCCUUUGCCCUCAACUUCAACAGCUCGCAGUCAAG | 0.132 |
| GGUCACGUCUCAAUCAACUCAUUCUCAGGAGUUUUCUCCUGUUUUCUCAACAGCUCGCAGUCAAG | 0.113 |
| GGUCACGUCUCAAUCAACUCAAUCGAGGGGGGGAAAACCCCUUUACCCUCACUCUCAACAGCUCGCAGUCAAG | 0.375 |
| GGUCACGUCUCAAUCAACUCAUUCCCAGGAGUUUGCUCCUGUAUAUUCAACAGCUCGCAGUCAAG | 0.0303 |
| GGUCACGUCUCAAUCAACUCUUUCCCCAGGGAAACCCCUGGUAUUUUCAACAGCUCGCAGUCAAG | -0.139 |
| GGUCACGUCUCAAUCAACUCAUCGUCAGGAGUUUUCUCCUGUUAACUCAACAGCUCGCAGUCAAG | 0.206 |

| Sequence | binding signal (log2 fold change) |
| --- | --- |
| GGUCACGUCUCAAUCAACUCUUUCUCAGGAGUUUCCUCCUGUAAAUUCAACAGCUCGCAGUCAAG | -0.171 |
| GGUCACGUCUCAAUCAACUCUUCUCCCAGGGAAACCCCUGGCUAUCUCAACAGCUCGCAGUCAAG | 0.00505 |
| GGUCACGUCUCAAUCAACUCAUCUUCCAGGGAAACCCCUGGUUAUUUCAACAGCUCGCAGUCAAG | -0.331 |
| GGUCACGUCUCAAUCAACUCUUCCUCAGGAGUUUCCUCCUGUAAAUUCAACAGCUCGCAGUCAAG | 0.0259 |
| GGUCACGUCUCAAUCAACUCAUCUUCAGGAGUUUUCUCCUGCUUAGUCAACAGCUCGCAGUCAAG | 0.163 |
| GGUCACGUCUCAAUCAACUCAUCCCCAGGAGUUUCCUCCUGUAUUUUCAACAGCUCGCAGUCAAG | 0.149 |
| GGUCACGUCUCAAUCAACUCUACAGAGGGGGGGAAAACCCCUUUACCCUCCAUCUCAACAGCUCGCAGUCAAG | -0.129 |
| GGUCACGUCUCAAUCAACUCAGUUCCAGGAGUUUACUCCUGCAAAUUCAACAGCUCGCAGUCAAG | 0.082 |
| GGUCACGUCUCAAUCAACUCAUCUCCAGGAGUUUCCUCCUGUUAACUCAACAGCUCGCAGUCAAG | 0.0138 |
| GGUCACGUCUCAAUCAACUCAAUCUCCAGGGAAAGCCCUGGUAUUCUCAACAGCUCGCAGUCAAG | -0.142 |
| GGUCACGUCUCAAUCAACUCUUCGUCCAGGGAAAACCCUGGUAUAUUCAACAGCUCGCAGUCAAG | -0.346 |
| GGUCACGUCUCAAUCAACUCUAUCCCAGGAGUUUACUCCUGCUAUUUCAACAGCUCGCAGUCAAG | 0.157 |
| GGUCACGUCUCAAUCAACUCAUCCUCCAGGGAAAGCCCUGGUAAACUCAACAGCUCGCAGUCAAG | -0.23 |
| GGUCACGUCUCAAUCAACUCUUCGUCAGGAGUUUACUCCUGCUAAUUCAACAGCUCGCAGUCAAG | 0.0101 |
| GGUCACGUCUCAAUCAACUCAUUUCCCAGGGAAAUCCCUGGUAAUCUCAACAGCUCGCAGUCAAG | 0.14 |
| GGUCACGUCUCAAUCAACUCAUUCUCCAGGGAAAUCCCUGGCUUACUCAACAGCUCGCAGUCAAG | 0.115 |
| GGUCACGUCUCAAUCAACUCCAUCGAGGGGGGGAAAACCCCUUUACCCUCAUCAUCAACAGCUCGCAGUCAAG | 0.201 |
| GGUCACGUCUCAAUCAACUCUAUUCCCAGGGAAACCCCUGGUUAAUUCAACAGCUCGCAGUCAAG | -0.0713 |
| GGUCACGUCUCAAUCAACUCAUCGUCAGGAGUUUACUCCUGCUAUCUCAACAGCUCGCAGUCAAG | 0.215 |
